# ± gives the standard deviation of the averaged measurements. Out of some 3,200 compounds screened, about 300 (9.4%) showed activity. Only a part is listed here, and it is no random draw.
# Test system: A673/TR/shEF
# Assay: cell viability (LOESS-normalised, relative to median of negative controls) (log2 ratio); higher = more viable cells (less compound effect), active = hit call of the paper (over 3 MAD below the median)
# Settings: treatment time: 72 h
# How it was run: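 Viability of A673/TR/shEF Ewing sarcoma cells was determined by CellTiter-Glo luminescence. The cells, at 1,500 per well in 384-well plates, were grown with or without doxycycline from 24 h before compound addition to switch on EWS-FLI1 shRNA knockdown, then exposed for three days to library compounds at two or more concentrations or to DMSO controls. Signals were LOESS-corrected plate by plate, normalised to the negative-control median and log2-transformed.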
# [1] = 0.25 µM, library screen: screen1, EWS-FLI1 expression: high (no doxycycline)
# [2] = 0.25 µM, library screen: screen1, EWS-FLI1 expression: low (doxycycline-induced shRNA knockdown)
# [3] = 2.5 µM, library screen: screen1, EWS-FLI1 expression: high (no doxycycline)
# [4] = 2.5 µM, library screen: screen1, EWS-FLI1 expression: low (doxycycline-induced shRNA knockdown)
# [5] = 0.25 µM, library screen: screen2, EWS-FLI1 expression: high (no doxycycline)
# [6] = 0.25 µM, library screen: screen2, EWS-FLI1 expression: low (doxycycline-induced shRNA knockdown)
# [7] = 2.5 µM, library screen: screen2, EWS-FLI1 expression: high (no doxycycline)
# [8] = 2.5 µM, library screen: screen2, EWS-FLI1 expression: low (doxycycline-induced shRNA knockdown)
# [9] = 0.103 µM, library screen: screen3, EWS-FLI1 expression: high (no doxycycline)
# [10] = 0.103 µM, library screen: screen3, EWS-FLI1 expression: low (doxycycline-induced shRNA knockdown)
# [11] = 0.308 µM, library screen: screen3, EWS-FLI1 expression: high (no doxycycline)
# [12] = 0.308 µM, library screen: screen3, EWS-FLI1 expression: low (doxycycline-induced shRNA knockdown)
# [13] = 0.926 µM, library screen: screen3, EWS-FLI1 expression: high (no doxycycline)
# [14] = 0.926 µM, library screen: screen3, EWS-FLI1 expression: low (doxycycline-induced shRNA knockdown)
# [15] = 2.8 µM, library screen: screen3, EWS-FLI1 expression: high (no doxycycline)
# [16] = 2.8 µM, library screen: screen3, EWS-FLI1 expression: low (doxycycline-induced shRNA knockdown)
# [17] = 8.3 µM, library screen: screen3, EWS-FLI1 expression: high (no doxycycline)
# [18] = 8.3 µM, library screen: screen3, EWS-FLI1 expression: low (doxycycline-induced shRNA knockdown)
# [19] = 25 µM, library screen: screen3, EWS-FLI1 expression: high (no doxycycline)
# [20] = 25 µM, library screen: screen3, EWS-FLI1 expression: low (doxycycline-induced shRNA knockdown)
smiles,measurement,setting,value
c1coc(CNc2ncnc3nc[nH]c23)c1,cell viability (log2),[1],inactive: 0.0851
same,cell viability (log2),[2],inactive: 0.0555
same,cell viability (log2),[3],inactive: 0.116
same,cell viability (log2),[4],inactive: 0.0571
CC1=C(C(=O)Nc2ccccc2Cl)C(c2ccc(O)cc2)NC(=S)N1 (centres undefined),cell viability (log2),[1],inactive: 0.145
same,cell viability (log2),[2],inactive: -0.0151
same,cell viability (log2),[3],inactive: 0.191
same,cell viability (log2),[4],inactive: -0.0985
O=C(Nc1cccc(C(=O)Nc2ccc(S(=O)(=O)O)c3cc(S(=O)(=O)O)cc(S(=O)(=O)O)c23)c1)Nc1cccc(C(=O)Nc2ccc(S(=O)(=O)O)c3cc(S(=O)(=O)O)cc(S(=O)(=O)O)c23)c1,cell viability (log2),[5],inactive: 0.11
same,cell viability (log2),[6],inactive: 0.117
same,cell viability (log2),[7],inactive: 0.167
same,cell viability (log2),[8],inactive: 0.0855
Oc1ccc([C@H]2Oc3cc(O)cc(O)c3C[C@H]2O)cc1,cell viability (log2),[1],inactive: 0.0303
same,cell viability (log2),[2],inactive: -0.000667
same,cell viability (log2),[3],inactive: 0.0839
same,cell viability (log2),[4],inactive: -0.00856
O=C1CC(c2ccc(O)cc2)Oc2cc(O)cc(O)c21 (centres undefined),cell viability (log2),[1],inactive: 0.0907
same,cell viability (log2),[2],inactive: 0.00298
same,cell viability (log2),[3],inactive: 0.101
same,cell viability (log2),[4],inactive: 0.056
COc1cccc2c1C(=O)c1c(O)c3c(c(O)c1C2=O)C[C@@](O)(C(C)=O)C[C@@H]3O[C@H]1C[C@H](N)[C@H](O)[C@H](C)O1,cell viability (log2),[9],active: -0.695
same,cell viability (log2),[10],-0.133 ± 0.18
same,cell viability (log2),[5],active: -1.6
same,cell viability (log2),[6],active: -0.269
same,cell viability (log2),[11],active: -1.27
same,cell viability (log2),[12],active: -0.403
same,cell viability (log2),[13],active: -2.5
same,cell viability (log2),[14],active: -0.592
same,cell viability (log2),[7],active: -2.54
same,cell viability (log2),[8],active: -0.371
same,cell viability (log2),[15],active: -3.11
same,cell viability (log2),[16],active: -1.48
same,cell viability (log2),[17],active: -4.09
same,cell viability (log2),[18],active: -3.66
same,cell viability (log2),[19],active: -4.26
same,cell viability (log2),[20],active: -4.25
CNC(=O)c1cc(Oc2ccc(NC(=O)Nc3ccc(Cl)c(C(F)(F)F)c3)cc2)ccn1,cell viability (log2),[9],inactive: -0.00934
same,cell viability (log2),[10],inactive: 0.068
same,cell viability (log2),[11],inactive: 0.0857
same,cell viability (log2),[12],inactive: 0.0899
same,cell viability (log2),[13],inactive: 0.0368
same,cell viability (log2),[14],inactive: 0.101
same,cell viability (log2),[15],inactive: 0.131
same,cell viability (log2),[16],inactive: 0.0803
same,cell viability (log2),[17],inactive: -0.0131
same,cell viability (log2),[18],inactive: 0.145
same,cell viability (log2),[19],inactive: -0.12
same,cell viability (log2),[20],inactive: 0.128
OCc1ccccc1O[C@@H]1O[C@H](CO)[C@@H](O)[C@H](O)[C@H]1O,cell viability (log2),[1],inactive: 0.0427
same,cell viability (log2),[2],inactive: 0.0732
same,cell viability (log2),[3],inactive: 0.126
same,cell viability (log2),[4],inactive: 0.0536
Ic1ccc(N2CCN(Cc3c[nH]c4ncccc34)CC2)cc1,cell viability (log2),[5],inactive: 0.119
same,cell viability (log2),[6],inactive: 0.07
same,cell viability (log2),[7],inactive: 0.0811
same,cell viability (log2),[8],inactive: 0.158
C=CC1=C(C(=O)O)N2C(=O)[C@@H](NC(=O)/C(=N\O)c3csc(N)n3)[C@H]2SC1,cell viability (log2),[9],inactive: 0.114
same,cell viability (log2),[10],inactive: 0.0737
same,cell viability (log2),[11],inactive: 0.109
same,cell viability (log2),[12],inactive: 0.0907
same,cell viability (log2),[13],inactive: 0.0409
same,cell viability (log2),[14],inactive: 0.0692
same,cell viability (log2),[15],inactive: 0.0192
same,cell viability (log2),[16],inactive: 0.0781
same,cell viability (log2),[17],inactive: 0.0612
same,cell viability (log2),[18],inactive: 0.0513
same,cell viability (log2),[19],inactive: 0.0272
same,cell viability (log2),[20],inactive: 0.13
CC(C1OC(C)(C)C(O)C1O)[C@@H]1CC[C@]2(C)C3=CCC4C(C)(C)C(=O)CC[C@]4(C)C3CC[C@@]12C (some centres undefined),cell viability (log2),[1],inactive: 0.062
same,cell viability (log2),[2],inactive: 0.126
same,cell viability (log2),[3],inactive: 0.148
same,cell viability (log2),[4],inactive: 0.137
CC(=O)NS(=O)(=O)c1ccc(N)cc1,cell viability (log2),[1],inactive: 0.0404
same,cell viability (log2),[2],inactive: 0.112
same,cell viability (log2),[3],inactive: 0.118
same,cell viability (log2),[4],inactive: 0.0492
CCc1cccc(N(C)C(N)=Nc2cccc3ccccc23)c1,cell viability (log2),[5],inactive: 0.138
same,cell viability (log2),[6],inactive: 0.102
same,cell viability (log2),[7],inactive: 0.0361
same,cell viability (log2),[8],inactive: 0.156
Cc1cn([C@H]2C=C[C@@H](CO)O2)c(=O)[nH]c1=O,cell viability (log2),[9],inactive: -0.00295
same,cell viability (log2),[10],inactive: 0.0515
same,cell viability (log2),[5],inactive: 0.197
same,cell viability (log2),[6],inactive: 0.032
same,cell viability (log2),[11],inactive: -0.0178
same,cell viability (log2),[12],inactive: 0.0223
same,cell viability (log2),[13],inactive: 0.0714
same,cell viability (log2),[14],inactive: 0.0163
same,cell viability (log2),[7],inactive: 0.101
same,cell viability (log2),[8],inactive: 0.0899
same,cell viability (log2),[15],inactive: 0.0507
same,cell viability (log2),[16],inactive: 0.0197
same,cell viability (log2),[17],inactive: 0.102
same,cell viability (log2),[18],inactive: 0.0821
same,cell viability (log2),[19],inactive: 0.0208
same,cell viability (log2),[20],inactive: 0.0668
C=C1CC[C@@H]2[C@](C)(CO)[C@H](O)CC[C@@]2(C)[C@@H]1C/C=C1/C(=O)OC[C@H]1O,cell viability (log2),[1],inactive: 0.0718
same,cell viability (log2),[2],inactive: 0.0195
same,cell viability (log2),[3],inactive: 0.114
same,cell viability (log2),[4],inactive: 0.0291
CC(C)c1ccc2c(c1)CCC1C(C)(CN)CCCC21C (centres undefined),cell viability (log2),[1],inactive: 0.0133
same,cell viability (log2),[2],inactive: -0.0819
same,cell viability (log2),[3],inactive: 0.122
same,cell viability (log2),[4],inactive: 0.00337
N[C@@H](Cc1c[nH]c2ccccc12)C(=O)O,cell viability (log2),[1],inactive: 0.0944
same,cell viability (log2),[2],inactive: 0.145
same,cell viability (log2),[5],inactive: 0.119
same,cell viability (log2),[6],inactive: 0.0955
same,cell viability (log2),[3],inactive: 0.157
same,cell viability (log2),[4],inactive: 0.234
same,cell viability (log2),[7],inactive: 0.198
same,cell viability (log2),[8],inactive: -0.0227
COC1(C2=NCCN2)COc2ccccc2O1 (centres undefined),cell viability (log2),[1],inactive: 0.131
same,cell viability (log2),[2],inactive: 0.0261
same,cell viability (log2),[5],inactive: 0.222
same,cell viability (log2),[6],inactive: 0.0687
same,cell viability (log2),[3],inactive: 0.172
same,cell viability (log2),[4],inactive: -0.00705
same,cell viability (log2),[7],inactive: 0.186
same,cell viability (log2),[8],inactive: 0.148
NS(=O)(=O)c1cc2c(cc1C(F)(F)F)NCNS2(=O)=O,cell viability (log2),[1],inactive: 0.0902
same,cell viability (log2),[2],inactive: 0.11
same,cell viability (log2),[3],inactive: 0.18
same,cell viability (log2),[4],inactive: 0.0973
